{"source": "PubChem BioAssay AID1159614", "about": "(National Center for Advancing Translational Sciences (NCATS), 2016)", "note": "The whole screen tested about 45,000 compounds, of which about 65 (0.1%) were called active. The call rests on the fitted dose curve; in most records, active means well fitted activation curve with a large enough effect; inconclusive means small, poorly fitted or top-dose-only effect; inactive means no such curve, though single readings can be large or run the other way. This is one part of the list.", "data": [{"target": "Galactocerebrosidase (Homo sapiens) (UniProt P54803)", "sequence (P54803 whole entry, looked up)": "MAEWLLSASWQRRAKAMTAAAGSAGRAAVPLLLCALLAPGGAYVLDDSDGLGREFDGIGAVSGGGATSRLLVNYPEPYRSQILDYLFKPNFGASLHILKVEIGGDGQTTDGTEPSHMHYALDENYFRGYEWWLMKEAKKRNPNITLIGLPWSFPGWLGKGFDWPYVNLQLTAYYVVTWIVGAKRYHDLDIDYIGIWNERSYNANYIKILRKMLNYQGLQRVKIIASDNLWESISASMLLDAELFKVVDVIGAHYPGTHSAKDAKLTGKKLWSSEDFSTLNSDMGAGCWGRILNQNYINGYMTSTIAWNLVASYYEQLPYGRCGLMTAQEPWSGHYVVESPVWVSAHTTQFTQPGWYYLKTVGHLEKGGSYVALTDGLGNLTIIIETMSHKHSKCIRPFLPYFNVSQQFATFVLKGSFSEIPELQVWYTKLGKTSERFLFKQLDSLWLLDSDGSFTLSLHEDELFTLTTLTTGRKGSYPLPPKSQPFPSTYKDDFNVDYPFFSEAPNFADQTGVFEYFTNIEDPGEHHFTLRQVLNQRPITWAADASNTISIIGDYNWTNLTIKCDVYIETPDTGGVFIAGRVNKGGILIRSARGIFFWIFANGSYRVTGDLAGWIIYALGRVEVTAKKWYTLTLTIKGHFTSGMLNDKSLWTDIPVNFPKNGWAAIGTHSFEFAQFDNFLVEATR", "assay": "A Novel Cell-Based Assay to Identify Small Molecules for B -Galactocerebrosidase; further: 0% is about no effect; nearly all actives have a fitted effect of over 65% in size", "details": "145M-Twi-hGALC-G270D cells, HMU-beta-Gal fluorescence, 48 h; series mostly up to 57.5 µM; activation: at the top concentration", "how_it_was_run": "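qHTS, 1536-well; 145M-Twi-hGALC-G270D cells (WT line also made) in DMEM/F12 + 10% FBS; compound incubation on live cells; HMU-β-gal 0.1 mM final, pH 5.2, NaTC; carbonate stop; fluorescence increase = enhanced residual activity.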", "values": [{"smiles": "Brc1cccc(-c2nn(-c3ccccc3)c3c2cnc2cc4c(cc23)OCO4)c1", "activation": "inactive: -5.86%"}, {"smiles": "COCCn1c(CNC(=O)c2ccccc2C)nc2cccnc21", "activation": "inactive: -4.48%"}, {"smiles": "Cc1ccc(C)c(CN2CCC(CNC(=O)C(CC(C)C)N3Cc4ccccc4C3=O)CC2)c1", "note": "(configuration not stated)", "activation": "inactive: -14.4%"}, {"smiles": "COc1ccc(NC(=O)Nc2cccc(-c3noc(C)n3)c2)cc1", "activation": "inactive: 2.93%"}, {"smiles": "CCc1cccc(C)c1NC(=O)C1CCN(S(=O)(=O)c2cc(Br)cc3c2N(C(C)=O)CC3)CC1", "activation": "inactive: -16%"}, {"smiles": "O=C(c1cccs1)N1CCCc2cc(NS(=O)(=O)c3ccc(Br)cc3)ccc21", "activation": "inactive: -8.79%"}, {"smiles": "COc1cc(-c2noc(-c3cc4cccc(C)c4oc3=O)n2)cc(OC)c1OC", "activation": "inactive: -7.08%"}, {"smiles": "CCCSC1=NC2(CCN(C(=O)NC3CCCCC3)CC2)N=C1c1ccc(OC)cc1", "activation": "inactive: -15.5%"}, {"smiles": "O=c1c2c3c(sc2nnn1CCCCOc1ccc(Cl)cc1)CCCC3", "activation": "inactive: -16%"}, {"smiles": "N#C/C(=C/c1ccc(O)cc1)c1nc(-c2ccc(-c3ccccc3)cc2)cs1", "activation": "inactive: -9%"}, {"smiles": "Cc1nc(-c2cccc(F)c2)sc1CCNC(=O)Cc1ccc(F)cc1", "activation": "inactive: 1.7%"}, {"smiles": "O=C(Nc1ccc(F)cc1)c1nc(SCc2ccccc2F)ncc1Cl", "activation": "inactive: 2.78%"}, {"smiles": "COc1ccc(-c2nsc(NC(=O)c3oc4ccc(Cl)cc4c3C)n2)cc1", "activation": "inactive: -13%"}, {"smiles": "CCOc1ccccc1-n1c(N)c(C(=O)OC)c2nc3ccccc3nc21", "activation": "inactive: 17.2%"}, {"smiles": "Cc1cc(NC(=O)c2cnn(-c3ccccc3)c2-n2cccc2)ccc1Br", "activation": "inactive: -11.6%"}, {"smiles": "Cn1c(C(=O)NCc2ccccc2Cl)cc2sc(Cl)cc21", "activation": "inactive: -4.44%"}, {"smiles": "Cc1ccc(OCCn2c(CNc3ccccc3C)nc3ccccc32)cc1", "activation": "inactive: -7.23%"}, {"smiles": "COc1cc(NS(=O)(=O)c2cc(Br)cc3c2N(C(C)=O)C(C)C3)cc(OC)c1", "note": "(configuration not stated)", "activation": "inactive: 5.35%"}, {"smiles": "O=C(NC1CCCCC1)c1ccc2c(c1)N(Cc1ccc(F)cc1)C(=O)c1ccccc1S2(=O)=O", "activation": "inactive: 25.1%"}, {"smiles": "N#CC1=C(N)N(c2ccc(Cl)cc2)C2=C(C(=O)CCC2)C1c1cc(CN2CCOCC2)cs1", "note": "(configuration not stated)", "activation": "inactive: -7.87%"}, {"smiles": "COc1cccc(CNC(=O)Cn2c(=O)cc(C)c3c(C)nn(C)c32)c1OC", "activation": "inactive: -11.5%"}, {"smiles": "Cc1cccc(N(C)C(=O)C2CCC(CNS(=O)(=O)c3cccc4nsnc34)CC2)c1", "note": "(configuration not stated)", "activation": "inactive: -20.3%"}, {"smiles": "CCc1cccc(NC(=O)Cn2c(=O)n(CC3CCC(C(=O)NC)CC3)c(=O)c3sccc32)c1", "note": "(configuration not stated)", "activation": "inactive: -11.6%"}, {"smiles": "COc1cccc(CNC(=O)CN(c2ccc(C)cc2)S(=O)(=O)N(C)C)c1OC", "activation": "inactive: -11.7%"}, {"smiles": "COc1cccc(-c2nc3c(C#N)c[nH]n3c2NC2CCCCC2)c1", "activation": "inactive: -11.8%"}, {"smiles": "COc1ccc(-c2csc3ncnc(Nc4ccc(OC)cc4OC)c23)cc1", "activation": "inactive: -20.3%"}, {"smiles": "Cc1ccccc1OCC(=O)Nc1c(C)ccc2nsnc12", "activation": "inactive: -6.86%"}, {"smiles": "CC1CCN(S(=O)(=O)c2ccc3c(ccn3CC(=O)NCc3ccc(N(C)C)cc3)c2)CC1", "activation": "inactive: -0.802%"}, {"smiles": "CC(C)c1ccc(S(=O)(=O)c2nnn3c2nc(N2CCOCC2)c2sccc23)cc1", "activation": "inactive: -18.6%"}, {"smiles": "CCOC(=O)N1CCc2c(sc3c2c(=O)n(-c2ccc(CC)cc2)c(=O)n3CC(=O)c2ccccc2)C1", "activation": "inactive: -1.09%"}, {"smiles": "Cc1ccc(NC(=O)C2CCN(C(=O)c3cnn(-c4ccccc4)c3-n3cccc3)CC2)cc1", "activation": "inactive: -9.92%"}, {"smiles": "COc1ccc(NS(=O)(=O)c2ccc3c(c2)CCCN3C(=O)C2CCC2)cc1OC", "activation": "inactive: -1.8%"}, {"smiles": "COc1ccc(Cl)cc1NC(=O)Cn1nc(C(F)(F)F)c2c1CCC2", "activation": "inactive: -13.3%"}, {"smiles": "COc1ccc(CCC(=O)NCc2nc3cccnc3n2Cc2cccc(OC)c2)cc1", "activation": "inactive: -7.79%"}, {"smiles": "CCCCc1nn2c(=O)cc(COC(=O)C(C)Oc3ccccc3)nc2s1", "note": "(configuration not stated)", "activation": "inactive: -9.55%"}, {"smiles": "CCC1CN(C(=O)N2CCC(C(=O)N3CCN(c4ccc(F)cc4)CC3)CC2)c2ccccc2O1", "note": "(configuration not stated)", "activation": "inactive: -10.2%"}, {"smiles": "COc1nc(N)nc2c1ncn2[C@@H]1O[C@H](CO)[C@@H](O)[C@@H]1O", "activation": "inactive: 0.531%"}, {"smiles": "Cc1c(C(=O)Nc2ccccc2Br)oc2ccc(S(=O)(=O)N3CCOCC3)cc12", "activation": "inactive: -11.9%"}, {"smiles": "O=C(NCc1ccccc1Cl)c1ccc(NC(=O)c2nsc3ccccc23)cc1", "activation": "inactive: -4.95%"}, {"smiles": "Cc1ccccc1Cn1c(=O)n(CCCCC(=O)NCc2ccccc2Cl)c(=O)c2ccccc21", "activation": "inactive: 9.01%"}, {"smiles": "COc1ccccc1CNC(=O)C1CCN(Cc2cc3ccccc3n2Cc2cccc(C)c2)CC1", "activation": "inactive: -1.94%"}, {"smiles": "COc1ccc2c(c1)CC(NC(=O)Nc1ccc(NC(C)=O)cc1)CO2", "note": "(configuration not stated)", "activation": "inactive: 9.73%"}, {"smiles": "CC(C)CNC(=O)c1c(-c2ccccc2)c(-c2ccccc2)nn(C)c1=O", "activation": "inactive: -7.78%"}, {"smiles": "CCOc1ccc(NC(=O)C2CCN(S(=O)(=O)c3ccc4c(c3)oc(=O)n4C)CC2)cc1", "activation": "inactive: -4.45%"}, {"smiles": "CCOc1cc(C)c(C(C)C)cc1S(=O)(=O)n1ccnc1CC", "activation": "inactive: -5.04%"}, {"smiles": "CCOc1ccc2nc(N3CCC(C(=O)Nc4ccc(Br)cc4F)CC3)sc2c1", "activation": "inactive: -29.1%"}, {"smiles": "O=C(CSc1nnc(-c2ccncc2)n1-c1ccccc1)Nc1ccc(Br)cc1", "activation": "inactive: -8.53%"}, {"smiles": "COc1ccc2c(c1)c1c(c(=O)n(Cc3ccccc3)c(=O)n1Cc1ccccc1)n2C", "activation": "inactive: -2.83%"}, {"smiles": "CCSc1ncc(Cl)c(C(=O)N(Cc2ccc(C(C)(C)C)cc2)C2CCS(=O)(=O)C2)n1", "note": "(configuration not stated)", "activation": "inactive: -9.42%"}, {"smiles": "CCCNC(=O)c1c(NC(=O)c2ccc(C)cc2)sc2c1CCCCC2", "activation": "inactive: -11.9%"}, {"smiles": "CC(=O)N1CCOc2cc(S(=O)(=O)Nc3cc(C(F)(F)F)ccc3Cl)c(C)cc21", "activation": "inactive: -4.25%"}, {"smiles": "Cc1ccc(-c2noc(-c3nnn(CC(=O)Nc4cccc(C(F)(F)F)c4)c3N)n2)cc1", "activation": "inactive: -10.7%"}, {"smiles": "O=C(CCCN1CCC(O)(c2cccc(C(F)(F)F)c2)CC1)c1ccc(F)cc1", "activation": "inactive: -9.46%"}, {"smiles": "CCOC(=O)c1c(C)oc2nc(C)nc(NCCCN3CCN(c4cc(Cl)ccc4C)CC3)c12", "activation": "inactive: -18%"}, {"smiles": "CCOC(=O)c1cccc(NC(=O)Nc2ccc3c(c2)N(C)C(=O)c2ccccc2S3)c1", "activation": "inactive: -15.9%"}, {"smiles": "Cc1ccc(C(=O)NCC(=O)OCc2cc(=O)n3nc(C4CC4)sc3n2)cc1", "activation": "inactive: -12.2%"}, {"smiles": "O=C(NCCCN1CCN(c2ccccc2F)CC1)C1COc2ccccc2C1", "note": "(configuration not stated)", "activation": "inactive: -12.5%"}, {"smiles": "O=C(Nc1cccc(-c2nc3ccccc3[nH]2)c1)c1c(F)cccc1F", "activation": "inactive: 7.76%"}, {"smiles": "O=C(O)c1cccnc1SCc1cccc(Cl)c1", "activation": "inactive: -16.7%"}, {"smiles": "COc1ccc(S(=O)(=O)Cc2ccc(C(=O)N3CCN(c4cc(C)ccc4C)CC3)o2)cc1", "activation": "inactive: -6.68%"}, {"smiles": "COc1ccc(CNC(=O)C2CCN(S(=O)(=O)c3c(C)noc3/C=C/c3cccs3)CC2)cc1", "activation": "inactive: -14.7%"}, {"smiles": "Cc1ccccc1NC(=O)CCOc1ccccc1", "activation": "inactive: -12.3%"}]}]}
